Experimental findings from the RNAGym collection of RNA variant scans (doi:10.1093/nar/gkz1192) are described below.

Sequences and labels used below:
B1: CPEB3 Ribozyme (parent)
chain: UAACAGGGGGCCACAGCAGAAGCGUUCACGUCGCAGCCCCUGUCAGAUUCUGGUGAAUCUGCGAAUUCUGCUGUAUAUCUC

Read counts are not given, so values of variants with three or more changes are uncertain.

This data set covers variants of B1. Put plainly: self-cleavage, relative activity (ratio to wild type); higher = more cleavage; in vitro, sequencing. Summed up:
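Libraries of CPEB3 self-cleaving ribozyme mutants came from rounds of error-prone PCR and carried barcodes, which DNA sequencing matched to variants. In vitro transcription used T7 RNA polymerase at 37°C for 5 hours, with a further 15 min in DNase I before EDTA stopped the reaction; the ribozymes cleaved during both steps. The RNA was reverse transcribed with template switching and sequenced on Illumina. Relative activity is the cleaved/total read fraction of a variant divided by that of the unmutated ribozyme, averaged over three batches with at least 5 reads.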
For UAACAGGGGGCCACAGCAGAAGCGUUCACGUCGCAGUCCCUGUCAGAUUCAGGUGGAUCUGCGAAUUCCGCUGUAUAUCUC, the self-cleavage amounted to 0.16.

For UAACAGGGGGCCACAGCAGAAGCGUUCACGUCGCAGUCCCGGUCAGAUCCUGGUGAAUCUGCGAAUUCUGCUGUAUACCCC, the self-cleavage is 0.07.

Take UAACAGGGGGCCACAGCAGAAGCGUUCACGUCGCAGCGCCUGGCAGAUUCUGGUGAAUCUGCGAAUUCCGCUGUAUAUCUC: the self-cleavage was 0.17.

Turning to UAACAGGGGGCCACAGCAGAAGCGUUCACGUCGCAGCACCUGUCAGAUUCGGGUGAAUCUGCGUAUCCUGCUGUAUAUCUC, the self-cleavage was found to be 0.05.

UAACAGGGGGCCACAGCAGAAGCGUUCACGUCGCAGUCCCUGUCAGACUCUGGGGAAUCAGCGAAUUCUGCUGUAUGUCUC: the self-cleavage is 0.13.

For the variant UAACAGGGGGCCACAGCAGAAGCGUUCACGUCGCAGCUCCUGUCAGACUCUGGUGAAUCUGCGAAUUCUGCUGUACAUCUC, the self-cleavage was determined as 0.4.

For the variant UAACAGGGGGCCACAGCAGAAGCGUUCACGUCGCAGUCCCUGUCAGAUUCUGGCGAAUCUGCGAAUUCAGCUGUAUAUCUC, the self-cleavage was 0.53.

UAACAGGGGGCCACAGCAGAAGCGUUCACGUCGCAGCUCCUGUCAGAUUCUGGUGAAUCUGCUAAUUCUGCGGUAUAUCUC: the self-cleavage was found to be 1.32.

Regarding UAACAGGGGGCCACAGCAGAAGCGUUCACGUCGCAGCUCCUGUCCGAUUCUGGUGAAUCCGCGAAUUCUGCUGUAUAUCUC, the self-cleavage worked out at 0.37.

Take UAACAGGGGGCCACAGCAGAAGCGUUCACGUCGCAGCACCUGUCAGACUCUGGUGUAUCCGCGAAUUCGGCUGUAUAUCUC: the self-cleavage was 0.13.

In the case of UAACAGGGGGCCACAGCAGAAGCGUUCACGUCGCAGCACCUGUCAGAUACUGGUGAAUCUGCGAACUCUGCUGUAUAUCUC, the self-cleavage was 0.17.

As for UAACAGGGGGCCACAGCAGAAGCGUUCACGUCGCAGUCCCUGUCAUAUUCUGGUCAAUCUGCGAACUCUGCUGUAUAUCUC, the self-cleavage was determined as 0.09.

As for UAACAGGGGGCCACAGCAGAAGCGUUCACGUCGCAGCACCUGUCAGAUCCUGGUGAAUCUGCGGAUUCUGCUGCAUAUCUC, the self-cleavage was determined as 0.43.

For UAACAGGGGGCCACAGCAGAAGCGUUCACGUCGCAGUCCCCGUCAGAUUCUGAUGAAUCUGCGAAUUCUGCUGUGUACCUC, the self-cleavage is 0.22.

Take UAACAGGGGGCCACAGCAGAAGCGUUCACGUCGCAGCACCCGUCAGAUUCUGGUGAAUCCGCGAAUUCUGCUAUAUAUCUC: the self-cleavage worked out at 0.64.

UAACAGGGGGCCACAGCAGAAGCGUUCACGUCGCAGUCCCCGUCAGAUUCUGGUGAAUCUGCGUAUUCUGCUGCAUAUCUC: the self-cleavage was determined as 0.11.

In the case of UAACAGGGGGCCACAGCAGAAGCGUUCACGUCGCAGCGCCUGUCAGAUUCUGGCGUAUCUGCGAAUUCUGCUGUAUAUCUC, the self-cleavage was 0.09.

Take UAACAGGGGGCCACAGCAGAAGCGUUCACGUCGCAGCUCCUGUCGGACUCUGGUGAAUCUGCGAAUUCUGCUGUAUAUCUC: the self-cleavage stood at 0.09.

Turning to UAACAGGGGGCCACAGCAGAAGCGUUCACGUCGCAGCUCCUGCCUGAUUCUGGUGAAUCUGCGAAUUCUGCUGAAUAUCCC, the self-cleavage is 0.14.

As for UAACAGGGGGCCACAGCAGAAGCGUUCACGUCGCAGUCCCUGUCAGAUUCUUGUGAAUCUGCGAAUUCGGCUGUAUAUCUC, the self-cleavage was 0.59.

As for UAACAGGGGGCCACAGCAGAAGCGUUCACGUCGCAGUCCCUCUCAGAUUCUGGUGAAUCUGCGGACUCUGCUGUAUAUCUC, the self-cleavage amounted to 0.07.

On to UAACAGGGGGCCACAGCAGAAGCGUUCACGUCGCAGCACCUGUCAGGUUCUGGUGAAUCUGCGAAUUCUGCCGUAUAUCUC, for which the self-cleavage is 0.11.

In the case of UAACAGGGGGCCACAGCAGAAGCGUUCACGUCGCAGCUCCUGUCAGAUUCUGGUGGUUCUGCGAAUUCUGCUGUAUAACUA, the self-cleavage was 0.13.

With UAACAGGGGGCCACAGCAGAAGCGUUCACGUCGCAGCACCUGUCUGAUCCUGGUGAAUCUGCGAAUUCUGCUGUAUAUCUC, the self-cleavage turned out to be 0.07.

UAACAGGGGGCCACAGCAGAAGCGUUCACGUCGCAGCACCUGUCAGAUUCUGGUGUAUCUGCGAAUUCUGCUGUAUACCUC: the self-cleavage amounted to 0.41.

As for UAACAGGGGGCCACAGCAGAAGCGUUCACGUCGCAGCACCUGUCUGAUUCUGGCGAAUCUGCGAAUUCUGCCGUAUACCUC, the self-cleavage was found to be 0.06.

Turning to UAACAGGGGGCCACAGCAGAAGCGUUCACGUCGCAGCGCCUGUCAGAUUCUGGUGAAACUGCGAAUUCCGCCGUAUAUCCC, the self-cleavage worked out at 0.06.

Turning to UAACAGGGGGCCACAGCAGAAGCGUUCACGUCGCAGUCCCUGUCAGAUCCGGGCGAAUCUGCGGAUUCUGCUGUAUAUCUC, the self-cleavage was determined as 0.13.

UAACAGGGGGCCACAGCAGAAGCGUUCACGUCGCAGCACCCGUCAGUUUCUGGUGAAUCUGCGGAUUCUGCUGUAUAUCCC: the self-cleavage was determined as 0.14.

As for UAACAGGGGGCCACAGCAGAAGCGUUCACGUCGCAGCUCCUGUCAGCUUCUGGUGGAUCUGCGAAUUCUGCUGUAUAUCUC, the self-cleavage came out at 0.38.

As to UAACAGGGGGCCACAGCAGAAGCGUUCACGUCGCAGCACCUGUCAGAUUCUGGUGAAUCUGCGUAUUUUGCCGUAUAUCUC, the self-cleavage turned out to be 0.14.

In the case of UAACAGGGGGCCACAGCAGAAGCGUUCACGUCGCAGCACCAGUCAGAUUCCGGUGAAUCUGCGGGUUCUGCUGUAUAUCUC, the self-cleavage was found to be 0.28.

With UAACAGGGGGCCACAGCAGAAGCGUUCACGUCGCAGCGCCUGCCAGAUUCUGGUGAAUCUGCGAAUUCUGCUGCAUAUCUC, the self-cleavage is 0.17.

With UAACAGGGGGCCACAGCAGAAGCGUUCACGUCGCAGCACCUGUCAGAUUCUGCUGAAUCUGCGAAUUCUGCUGUAUACCUC, the self-cleavage amounted to 0.13.
